Experimental data reported in PubChem BioAssay (Tox21).
Where “and” joins values, the source holds several entries; their conditions need not be identical. Equal values may be shown once. The inconclusive results got no clear call from the source; some entries with a clear call stand among them for comparison. For some assays here: Where the call is inconclusive, the potency comes from a doubtful curve fit. A structure can be active in one record and inactive in another. Calls of active or inactive are those of the source. Unless noted, calls follow the shape of the full dose curve.

What was measured:
[1] = biological target: Peroxisome proliferator-activated receptor gamma (Homo sapiens) (UniProt P37231); test: qHTS assay to identify small molecule agonists of the peroxisome proliferator-activated receptor gamma (PPARg) signaling pathway (AID 743094; active = well fitted activation curve with a large enough effect in the signal ratio in the repeat runs, not every such curve was filed as active; inconclusive = weak or mixed curves, or effect the other way; inactive = no such curve, though single readings can be large or run the other way; the % refers to the signal ratio; also: potency is read from the fitted curve at half-maximal effect; as to activation: % is scaled to controls: 0 for no effect and ±100 for the full control effect); settings: HEK293H PPARg-UAS-bla, beta-lactamase FRET ratio, 17 h; activation: at 57 µM (top of the series) unless noted
Method in brief: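 Beta-lactamase FRET fluorescence was the read-out after a 1 h room-temperature substrate step, following 17 h compound treatment at 37C of HEK293H cells expressing a UAS-driven bla reporter responsive to PPARg.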

[2] = biological target: Peroxisome proliferator-activated receptor gamma (Homo sapiens) (UniProt P37231); test: qHTS assay to identify small molecule antagonists of the peroxisome proliferator-activated receptor gamma (PPARg) signaling pathway (AID 743191); settings: HEK293H PPARg-UAS-bla, beta-lactamase ratio, antagonist, 17 h; ratio activity, negative = inhibition: at 62.6 µM (top of the series) unless noted; also: nearly all actives have a fitted effect of over 30% in size; also: potency is read from the fitted curve at half-maximal effect; as to ratio activity, negative = inhibition: % is scaled to controls: 0 for no effect and ±100 for the full control effect
Method in brief: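 Beta-lactamase reporter under UAS control in HEK293H PPARg-bla cells; compound treatment 17 h at 37C. Read-out: fluorescence intensity after 1 h room-temperature incubation with LiveBLAzer B/G FRET substrate.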

[3] = biological target: Peroxisome proliferator-activated receptor delta (Homo sapiens) (UniProt Q03181); test: qHTS assay to identify small molecule agonists of the peroxisome proliferator-activated receptor delta (PPARd) signaling pathway (AID 743212); settings: HEK293H PPARd-UAS-bla, beta-lactamase FRET ratio, 17 h; activation: at 62.6 µM (top of the series) unless noted; also: potency is read from the fitted curve at half-maximal effect
Method in brief: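 HEK293H UAS-bla reporter cells, human PPARd system; compounds delivered in DMSO after 5 h plating, then at 37 C. Beta-lactamase FRET read, 2 h RT substrate step.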

[4] = qHTS assay for small molecule agonists of the antioxidant response element (ARE) signaling pathway (AID 743202; active = well fitted activation curve with a large enough effect in the signal ratio in the repeat runs, not every such curve was filed as active; inconclusive = weak or mixed curves, or effect the other way; inactive = no such curve, though single readings can be large or run the other way; the % refers to the signal ratio; also: potency is read from the fitted curve at half-maximal effect); settings: HepG2 ARE-bla reporter, beta-lactamase FRET, 16 h; activation: at 73.3 µM (top of the series) unless noted
Method in brief: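 An ARE-responsive beta-lactamase gene stably integrated in HepG2 cells serves as reporter. After 5 h plating and 16 h compound incubation at 37 C, fluorescence of the B/G FRET substrate was measured.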

[5] = qHTS assay for small molecule activators of the heat shock response signaling pathway (AID 743210; active = well fitted activation curve with a large enough effect in the signal ratio in the repeat runs, with a control signal flat, not every such curve was filed as active; inconclusive = weak or mixed curves; the % refers to the signal ratio; also: potency is read from the fitted curve at half-maximal effect); settings: HeLa HSE-bla reporter, beta-lactamase ratio, 5 h; activation: at 62.6 µM (top of the series)
Method in brief: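 In HSE-bla HeLa cells, 5 h compound incubation (37 C) precedes addition of LiveBLAzer B/G substrate; after 2.5 h at room temperature, fluorescence intensity indicates reporter induction.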

[6] = qHTS assay to identify small molecule antagonists of the peroxisome proliferator-activated receptor delta (PPARd) signaling pathway - cell viability counter screen (AID 743213; active = well fitted curve in the direction sought with a large enough effect in the repeat runs; inconclusive = weak or mixed curves; inactive = no such curve, though single readings can be large; an effect the other way counts as inactive or inconclusive; also: % is scaled to controls: 0 for no effect and ±100 for the full control effect; nearly all actives have a fitted effect of over 50% in size); settings: PPARd-bla HEK293H viability, CellTiter-Glo luminescence, 17 h; viability change, negative = cytotoxic: at 62 µM (top of the series) unless noted
Method in brief: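 Same-well viability: cells pre-incubated 5 h, dosed with compound plus 300 nM L165041, kept 17 h at 37 C, FRET substrate 2 h RT, then CellTiter-Glo 30 min RT and luminescence.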

[7] = qHTS assay for small molecule activators of the heat shock response signaling pathway - cell viability counter screen (AID 743209; active = well fitted curve in the direction sought with a large enough effect in the repeat runs; inconclusive = weak or mixed curves; inactive = no such curve, though single readings can be large; an effect the other way counts as inactive or inconclusive; also: % is scaled to controls: 0 for no effect and ±100 for the full control effect; nearly all actives have a fitted effect of over 50% in size); settings: HSE-bla HeLa viability, CellTiter-Glo luminescence, 5 h; activity change, negative = cytotoxicity: at 62.6 µM (top of the series)
Method in brief: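 Luminescence from CellTiter-Glo, added after the beta-lactamase FRET read, gave the viability signal. Cells were HSE-bla HeLa treated with DMSO-dissolved compounds for 5 h at 37 C following overnight plating.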

[8] = biological target: Peroxisome proliferator-activated receptor delta (Homo sapiens) (UniProt Q03181); test: qHTS assay to identify small molecule antagonists of the peroxisome proliferator-activated receptor delta (PPARd) signaling pathway (AID 743215; active = well fitted inhibition curve with a large enough effect in the signal ratio in the repeat runs, not every such curve was filed as active; inconclusive = weak or mixed curves, or effect the other way; inactive = no such curve, though single readings can be large or run the other way; the % refers to the signal ratio;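 also: cells stimulated with agonist L165041 at 300 nM final during compound exposure; % is scaled to controls: 0 for no effect and ±100 for the full control effect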); settings: HEK293H PPARd-UAS-bla, beta-lactamase FRET ratio, antagonist, 17 h; ratio activity, negative = inhibition: at 62 µM (top of the series) unless noted
Method in brief: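 Read-out is beta-lactamase FRET fluorescence, measured 2 h after substrate addition at room temperature. Beforehand, UAS-bla HEK293H cells carrying the PPARd reporter were exposed to compounds with L165041 at 300 nM final for 17 h at 37 C.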

[9] = biological target: Vitamin D3 receptor (Homo sapiens) (UniProt P11473); test: qHTS assay to identify small molecule agonists of the vitamin D receptor (VDR) signaling pathway (AID 743222); settings: HEK293T VDR-UAS-bla, beta-lactamase FRET ratio, 16 h; activation: at 63.5 µM (top of the series) unless noted; also: potency is read from the fitted curve at half-maximal effect
Method in brief: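 VDR-bla cells, 2,000/well; 4 h preincubation 37C; cpd (DMSO) 16 h; LiveBLAzer B/G substrate 2 h RT; fluorescence intensity read.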

[10] = qHTS assay to identify small molecule agonists of the farnesoid-X-receptor (FXR) signaling pathway - cell viability counter screen (AID 743218; active = well fitted curve in the direction sought with a large enough effect in the repeat runs; inconclusive = weak or mixed curves; inactive = no such curve, though single readings can be large; an effect the other way counts as inactive or inconclusive; also: potency is read from the fitted curve at half-maximal effect; nearly all actives have a fitted effect of over 45% in size); settings: FXR-bla HEK293T viability, CellTiter-Glo luminescence, 16 h; viability change, negative = cytotoxic: at 62.6 µM (top of the series) unless noted
Method in brief: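 HEK 293T FXR-bla cells; 5 h pre-incubation, 16 h compound exposure at 37 C; LiveBLAzer substrate 2 h RT, then CellTiter-Glo 30 min RT, luminescence.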

[11] = biological target: Vitamin D3 receptor (Homo sapiens) (UniProt P11473); test: qHTS assay to identify small molecule antagonists of the vitamin D receptor (VDR) signaling pathway (AID 743223; active = well fitted inhibition curve with a large enough effect in the signal ratio in the repeat runs, not every such curve was filed as active; inconclusive = weak or mixed curves, or effect the other way; inactive = no such curve, though single readings can be large or run the other way; the % refers to the signal ratio; also: potency is read from the fitted curve at half-maximal effect); settings: VDR-UAS-bla HEK293T, beta-lactamase FRET ratio, 16 h; activity change, negative = inhibition: at 61 µM (top of the series) unless noted
Method in brief: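 Beta-lactamase reporter read-out: FRET substrate fluorescence after 2 h at room temperature, following 16 h exposure of VDR-bla cells to test compound plus 3 nM (final) 1alpha,25-dihydroxyvitamin D3 agonist at 37C.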

[12] = qHTS assay to identify small molecule agonists of the peroxisome proliferator-activated receptor delta (PPARd) signaling pathway - cell viability counter screen (AID 743211; active = well fitted curve in the direction sought with a large enough effect in the repeat runs; inconclusive = weak or mixed curves; inactive = no such curve, though single readings can be large; an effect the other way counts as inactive or inconclusive; also: potency is read from the fitted curve at half-maximal effect; nearly all actives have a fitted effect of over 55% in size); settings: PPARd-bla HEK293H viability, CellTiter-Glo luminescence, 17 h; activity change, negative = cytotoxicity: at 62.6 µM (top of the series)
Method in brief: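 Read-out: CellTiter-Glo luminescence, 30 min RT, measured in the same wells as the beta-lactamase reporter. Cells: GeneBLAzer PPAR delta UAS-bla HEK293H, 3000 cells/well, compound exposure 17 h at 37C.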

[13] = qHTS assay to identify small molecule antagonists of the farnesoid-X-receptor (FXR) signaling pathway - cell viability counter screen (AID 743221; active = well fitted cell-killing curve with a large enough effect in the repeat runs, not every such curve was filed as active; inconclusive = weak or mixed curves, or effect the other way; inactive = no such curve, though single readings can be large or run the other way; also: potency is read from the fitted curve at half-maximal effect; nearly all actives have a fitted effect of over 50% in size); settings: FXR-bla HEK293T viability, CellTiter-Glo luminescence, 16 h; activity change, negative = cytotoxicity: at 62.6 µM (top of the series)
Method in brief: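 HEK 293T FXR-bla cells, 5 h pre-incubation; compound + CDCA 50 uM final, 16 h, 37 C; beta-lactamase FRET read first, then CellTiter-Glo luminescence, 30 min RT.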

[14] = biological target: Bile acid receptor (Homo sapiens) (UniProt Q96RI1); test: qHTS assay to identify small molecule antagonists of the farnesoid-X-receptor (FXR) signaling pathway (AID 743217; active = well fitted inhibition curve with a large enough effect in the signal ratio in the repeat runs, not every such curve was filed as active; inconclusive = weak or mixed curves, or effect the other way; inactive = no such curve, though single readings can be large or run the other way; the % refers to the signal ratio; also: % is scaled to controls: 0 for no effect and ±100 for the full control effect); settings: HEK293T FXR-UAS-bla, beta-lactamase ratio, CDCA-stimulated, 16 h; activity change, negative = inhibition: at 62.6 µM (top of the series) unless noted
Method in brief: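 HEK 293T FXR-UAS-bla, 5000 cells/well; compound + CDCA 50 uM final; 16 h, 37 °C; B/G FRET substrate 2 h RT; fluorescence.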

[15] = biological target: Bile acid receptor (Homo sapiens) (UniProt Q96RI1); test: qHTS assay to identify small molecule agonists of the farnesoid-X-receptor (FXR) signaling pathway (AID 743220; active = well fitted activation curve with a large enough effect in the signal ratio in the repeat runs, not every such curve was filed as active; inconclusive = weak or mixed curves, or effect the other way; the % refers to the signal ratio; also: potency is read from the fitted curve at half-maximal effect); settings: HEK293T FXR-UAS-bla, beta-lactamase FRET ratio, 16 h; activation: at 62.6 µM (top of the series) unless noted
Method in brief: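 Beta-lactamase reporter under UAS control in GeneBLAzer FXR HEK 293T cells (5000/well) measured with LiveBLAzer FRET substrate after 2 h at room temperature. Compound exposure lasted 16 h at 37C.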
Tags tell the direction and shape of the fitted curve or compound fluorescence and quenching.

Sequence of UniProt Q96RI1 (Q96RI1 whole entry, looked up): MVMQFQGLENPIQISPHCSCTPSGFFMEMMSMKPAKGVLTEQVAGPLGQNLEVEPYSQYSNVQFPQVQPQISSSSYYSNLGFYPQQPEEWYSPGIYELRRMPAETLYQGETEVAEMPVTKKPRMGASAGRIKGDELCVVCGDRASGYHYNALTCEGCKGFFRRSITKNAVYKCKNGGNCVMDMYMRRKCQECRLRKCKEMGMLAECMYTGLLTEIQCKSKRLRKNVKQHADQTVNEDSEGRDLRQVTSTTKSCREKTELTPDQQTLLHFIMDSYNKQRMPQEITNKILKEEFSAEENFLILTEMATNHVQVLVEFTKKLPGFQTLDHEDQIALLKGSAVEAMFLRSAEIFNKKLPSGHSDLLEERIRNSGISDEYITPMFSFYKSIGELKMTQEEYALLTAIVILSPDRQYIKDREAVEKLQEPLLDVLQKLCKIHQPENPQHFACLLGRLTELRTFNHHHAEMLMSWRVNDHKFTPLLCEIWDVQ
Sequence of UniProt P37231 (P37231 whole entry, looked up): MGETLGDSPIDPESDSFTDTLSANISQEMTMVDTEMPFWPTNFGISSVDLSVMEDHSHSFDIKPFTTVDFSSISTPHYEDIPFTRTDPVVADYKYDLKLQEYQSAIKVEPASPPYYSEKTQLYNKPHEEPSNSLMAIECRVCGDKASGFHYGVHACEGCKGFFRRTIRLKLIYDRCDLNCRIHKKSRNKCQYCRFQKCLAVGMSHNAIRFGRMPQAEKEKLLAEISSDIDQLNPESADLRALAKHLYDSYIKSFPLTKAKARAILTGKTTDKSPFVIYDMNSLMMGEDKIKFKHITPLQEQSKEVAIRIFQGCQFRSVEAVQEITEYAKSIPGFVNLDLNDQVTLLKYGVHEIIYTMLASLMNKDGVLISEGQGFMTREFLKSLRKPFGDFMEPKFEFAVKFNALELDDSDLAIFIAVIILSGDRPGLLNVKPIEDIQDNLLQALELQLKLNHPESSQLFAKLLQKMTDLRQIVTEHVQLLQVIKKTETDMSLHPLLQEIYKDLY
Sequence of UniProt Q03181 (Q03181 whole entry, looked up): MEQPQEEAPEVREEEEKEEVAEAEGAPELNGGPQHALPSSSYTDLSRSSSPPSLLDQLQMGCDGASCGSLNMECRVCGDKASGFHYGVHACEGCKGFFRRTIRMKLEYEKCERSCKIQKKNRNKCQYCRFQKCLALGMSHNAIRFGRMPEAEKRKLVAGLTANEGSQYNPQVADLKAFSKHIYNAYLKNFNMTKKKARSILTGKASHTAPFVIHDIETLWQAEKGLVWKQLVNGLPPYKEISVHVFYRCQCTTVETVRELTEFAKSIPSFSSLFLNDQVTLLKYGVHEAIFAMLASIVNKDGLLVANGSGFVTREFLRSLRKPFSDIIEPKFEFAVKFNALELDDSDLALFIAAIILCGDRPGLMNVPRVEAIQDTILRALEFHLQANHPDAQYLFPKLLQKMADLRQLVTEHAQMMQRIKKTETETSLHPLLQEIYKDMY
Sequence of UniProt P11473 (P11473 whole entry, looked up): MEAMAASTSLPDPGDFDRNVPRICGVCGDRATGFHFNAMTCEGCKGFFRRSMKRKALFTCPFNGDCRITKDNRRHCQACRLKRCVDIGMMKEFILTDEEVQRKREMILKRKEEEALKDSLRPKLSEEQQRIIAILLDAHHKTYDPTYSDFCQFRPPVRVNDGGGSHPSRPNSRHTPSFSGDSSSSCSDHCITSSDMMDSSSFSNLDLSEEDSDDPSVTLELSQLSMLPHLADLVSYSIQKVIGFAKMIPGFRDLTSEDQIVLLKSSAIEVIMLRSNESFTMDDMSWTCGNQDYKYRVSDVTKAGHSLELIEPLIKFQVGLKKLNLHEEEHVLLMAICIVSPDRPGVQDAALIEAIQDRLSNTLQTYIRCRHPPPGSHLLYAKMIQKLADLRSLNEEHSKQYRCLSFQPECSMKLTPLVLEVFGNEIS

In the case of `Cc1ccc2ccccc2n1`, the Potency [1] is reported as inconclusive: 49 µM [fluorescent, partial curve, poor fit], the Potency [2] is reported as “inactive” and the Potency [3] is reported as inconclusive: 21.9 µM [rising, single point].

With `OC1CCCCCCCCCCC1` the Potency [1] was “inactive”, the ratio activity, negative = inhibition [2] was inconclusive: 27.2% [at 81.1 µM] and the Potency [4] was inconclusive: 68.6 µM [rising, single point]. For the same compound, the Potency [5] was inconclusive: 62.3 µM and the viability change, negative = cytotoxic [6] was inconclusive: -22.7% [cytotoxic] [at 80.4 µM].

For `CC(C)=CCC/C(C)=C/COC=O`, the Potency [1] was “inactive”, the Potency [2] was “inactive” and the Potency [4] was “inactive”. For the same compound, the Potency [7] was “inactive”, the Potency [8] was “inactive” and the Potency [9] was inconclusive: 0.138 µM [rising, partial curve].

With `CC(C)COC(=O)c1ccccc1O` the Potency [1] was “inactive”, the Potency [2] was “inactive” and the Potency [7] was “inactive”. For the same compound, the Potency [5] was “inactive”.

For `C[C@]12CC[C@H]3[C@@H](CCC4=CC(=O)CC[C@@]43C)[C@@H]1CC[C@@H]2C(=O)CO`, the Potency [1] was inconclusive: 34.7 µM [fluorescent, partial curve, poor fit], the ratio activity, negative = inhibition [2] was inconclusive: -1.75% and inconclusive: 14.2% and the Potency [3] was inconclusive: 29.8 µM [rising, partial curve]. The Potency [10] was inconclusive: 0.119 µM [rising, full curve, poor fit], the Potency [11] was inconclusive: 17.4 µM [activator, full curve, poor fit] and the activity change, negative = inhibition [11] was inconclusive: 26.1%.

With `CCCCCCCCCCC[C@@H](C[C@@H]1OC(=O)[C@H]1CCCCCC)OC(=O)[C@H](CC(C)C)NC=O` the Potency [1] was “inactive”, the Potency [2] was inconclusive: 11.9 µM [inhibitor, partial curve] and the Potency [4] was inconclusive: 13.3 µM [falling, partial curve, poor fit]. For the same compound, the Potency [5] was inconclusive: 3.76 µM, the Potency [12] was inconclusive: 0.668 µM [cytotoxic] and the Potency [3] was “inactive”. For the same compound, the Potency [13] was inconclusive: 13.3 µM [falling, single point] and the activation [9] was inconclusive: -14.1%.

For `CCOC(=O)C(C#N)=C(c1ccccc1)c1ccccc1`, the Potency [1] was “inactive”, the Potency [2] was active: 49 µM and the Potency [7] was “inactive”. For the same compound, the Potency [5] was “inactive” and the activity change, negative = inhibition [14] was inconclusive: -0.203%.

With `Oc1ccc(CCNCCCCCCNCCc2ccccc2)cc1O` the activation [1] was inconclusive: -14.2%, the ratio activity, negative = inhibition [2] was inconclusive: -7.09% and the Potency [4] was “inactive”. The Potency [12] was inconclusive: 21.1 µM [cytotoxic, partial curve] and the Potency [9] was inconclusive: 33.5 µM [rising, single point].

For `C#C[C@]1(O)CC[C@H]2[C@@H]3CCc4cc(OC5CCCC5)ccc4[C@H]3CC[C@@]21C`, the Potency [1] was “inactive”, the Potency [2] was inconclusive: 37.6 µM [fluorescent, partial curve, poor fit] and the Potency [4] was inconclusive: 26.6 µM [rising, partial curve, poor fit]. The Potency [12] was inconclusive: 33.5 µM [cytotoxic, single point], the activation [3] was inconclusive: -11.2% and the viability change, negative = cytotoxic [6] was inconclusive: -30.1% [cytotoxic]. For the same compound, the ratio activity, negative = inhibition [8] was inconclusive: 10.5%, the activity change, negative = inhibition [14] was inconclusive: -22.9% and the Potency [10] was active: 26.6 µM. For the same compound, the Potency [15] was inconclusive: 29.8 µM [rising, partial curve, poor fit] and the Potency [13] was inconclusive: 23.7 µM [falling, partial curve, poor fit].

In the case of `O=Cc1c2ccccc2c(Cl)c2ccccc12`, the Potency [1] is reported as active: 9.53 µM, the Potency [2] is reported as inconclusive: 9.53 µM [rising, partial curve] and the Potency [4] is reported as active: 29.9 µM. For the same compound, the Potency [5] was inconclusive: 10.7 µM [activator, partial curve], the Potency [3] was active: 10.7 µM and the Potency [8] was “inactive”.
